According to the supplement of paper PMC8728848:
The list shows a part of the results.

Key:
Experiment in all cases: glycan array binding signal (z-score within array); higher = stronger binding
Settings in all cases: glycan notation: IUPAC condensed, linker removed
[1] = target: Man(a1-3)[Man(a1-6)]Man(a1-6)[Man(a1-3)]Man
Method in brief: (§1)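 The Consortium for Functional Glycomics database supplied 3228 glycan arrays, of which those lacking an available protein sequence were dropped. The binding signal, a within-array Z-score, was averaged across arrays of the same protein sequence and across linkers. Negative scores can be read as non-binding.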

[2] = target: Man(a1-3)[Man(a1-6)]Man(a1-6)[Man(a1-3)]Man(b1-4)GlcNAc(b1-4)GlcNAc
Method in brief: as §1

[3] = target: Man(a1-3)[Man(a1-6)]Man(b1-4)GlcNAc(b1-4)GlcNAc
Method in brief: as §1

[4] = target: Man(a1-3)[Man(a1-6)]Man(b1-4)GlcNAc(b1-4)[Fuc(a1-6)]GlcNAc
Method in brief: as §1

Man(a1-6)Man = target: Man(a1-6)Man
Method in brief: as §1

Man(b1-4)GlcNAc = target: Man(b1-4)GlcNAc
Method in brief: as §1

MurNAc(b1-4)GlcNAc = target: MurNAc(b1-4)GlcNAc
Method in brief: as §1

Neu5Ac(a2-3)Gal = target: Neu5Ac(a2-3)Gal
Method in brief: as §1

[5] = target: Neu5Ac(a2-3)Gal(b1-3)GalNAc
Method in brief: as §1

[6] = target: Neu5Ac(a2-3)Gal(b1-3)GalNAc(b1-3)Gal(a1-4)Gal(b1-4)Glc
Method in brief: as §1

[7] = target: Neu5Ac(a2-3)Gal(b1-3)GalNAc(b1-4)[Neu5Ac(a2-3)]Gal(b1-4)Glc
Method in brief: as §1

[8] = target: Neu5Ac(a2-3)Gal(b1-3)GalNAc(b1-4)[Neu5Ac(a2-8)Neu5Ac(a2-3)]Gal(b1-4)Glc
Method in brief: as §1

[9] = target: Neu5Ac(a2-3)Gal(b1-3)GalNAc6S
Method in brief: as §1

[10] = target: Neu5Ac(a2-3)Gal(b1-3)GlcNAc
Method in brief: as §1

[11] = target: Neu5Ac(a2-3)Gal(b1-3)GlcNAc(b1-2)Man
Method in brief: as §1

[12] = target: Neu5Ac(a2-3)Gal(b1-3)GlcNAc(b1-2)Man(a1-3)[GlcNAc(b1-4)][Neu5Ac(a2-3)Gal(b1-3)GlcNAc(b1-2)Man(a1-6)]Man(b1-4)GlcNAc(b1-4)GlcNAc
Method in brief: as §1

[13] = target: Neu5Ac(a2-3)Gal(b1-3)GlcNAc(b1-2)Man(a1-3)[Neu5Ac(a2-3)Gal(b1-3)GlcNAc(b1-2)Man(a1-6)]Man(b1-4)GlcNAc(b1-4)GlcNAc
Method in brief: as §1

[14] = target: Neu5Ac(a2-3)Gal(b1-3)GlcNAc(b1-3)Gal(b1-3)GlcNAc
Method in brief: as §1

[15] = target: Neu5Ac(a2-3)Gal(b1-3)GlcNAc(b1-3)Gal(b1-4)GlcNAc
Method in brief: as §1

[16] = target: Neu5Ac(a2-3)Gal(b1-3)GlcNAc(b1-3)GalNAc
Method in brief: as §1

[17] = target: Neu5Ac(a2-3)Gal(b1-3)GlcNAc(b1-4)Gal(b1-4)Glc
Method in brief: as §1

[18] = target: Neu5Ac(a2-3)Gal(b1-3)GlcNAc(b1-6)GalNAc
Method in brief: as §1

[19] = target: Neu5Ac(a2-3)Gal(b1-3)GlcNAc6S
Method in brief: as §1

[20] = target: Neu5Ac(a2-3)Gal(b1-3)[Fuc(a1-4)]GlcNAc
Method in brief: as §1

[21] = target: Neu5Ac(a2-3)Gal(b1-3)[Fuc(a1-4)]GlcNAc(b1-3)Gal(b1-3)[Fuc(a1-4)]GlcNAc
Method in brief: as §1

[22] = target: Neu5Ac(a2-3)Gal(b1-3)[Fuc(a1-4)]GlcNAc(b1-3)Gal(b1-4)[Fuc(a1-3)]GlcNAc
Method in brief: as §1

[23] = target: Neu5Ac(a2-3)Gal(b1-3)[GlcNAc(b1-6)]GalNAc
Method in brief: as §1

[24] = target: Neu5Ac(a2-3)Gal(b1-3)[Neu5Ac(a2-6)]GalNAc
Method in brief: as §1

[25] = target: Neu5Ac(a2-3)Gal(b1-3)[Neu5Ac(a2-6)]GlcNAc(b1-3)[Fuc(a1-3)[Gal(b1-4)]GlcNAc(b1-6)]Gal(b1-4)Glc
Method in brief: as §1

[26] = target: Neu5Ac(a2-3)Gal(b1-3)]Neu5Ac(a2-3)Gal(b1-4)]GlcNAc
Method in brief: as §1

Neu5Ac(a2-3)Gal(b1-4)Glc = target: Neu5Ac(a2-3)Gal(b1-4)Glc
Method in brief: as §1

[27] = target: Neu5Ac(a2-3)Gal(b1-4)GlcNAc
Method in brief: as §1

[28] = target: Neu5Ac(a2-3)Gal(b1-4)GlcNAc(b1-2)Man
Method in brief: as §1

[29] = target: Neu5Ac(a2-3)Gal(b1-4)GlcNAc(b1-2)Man(a1-3)[GlcNAc(b1-4)][Neu5Ac(a2-3)Gal(b1-4)GlcNAc(b1-2)Man(a1-6)]Man(b1-4)GlcNAc(b1-4)GlcNAc
Method in brief: as §1

[30] = target: Neu5Ac(a2-3)Gal(b1-4)GlcNAc(b1-2)Man(a1-3)[Neu5Ac(a2-3)Gal(b1-4)GlcNAc(b1-2)Man(a1-6)]Man(b1-4)GlcNAc(b1-4)GlcNAc
Method in brief: as §1

[31] = target: Neu5Ac(a2-3)Gal(b1-4)GlcNAc(b1-2)Man(a1-3)[Neu5Ac(a2-3)Gal(b1-4)GlcNAc(b1-2)Man(a1-6)]Man(b1-4)GlcNAc(b1-4)[Fuc(a1-6)]GlcNAc
Method in brief: as §1

[32] = target: Neu5Ac(a2-3)Gal(b1-4)GlcNAc(b1-2)Man(a1-3)[Neu5Ac(a2-6)Gal(b1-4)GlcNAc(b1-2)Man(a1-6)]Man(b1-4)GlcNAc(b1-4)GlcNAc
Method in brief: as §1

[33] = target: Neu5Ac(a2-3)Gal(b1-4)GlcNAc(b1-2)[Neu5Ac(a2-3)Gal(b1-4)GlcNAc(b1-4)]Man(a1-3)[GlcNAc(b1-4)][Neu5Ac(a2-3)Gal(b1-4)GlcNAc(b1-2)[Neu5Ac(a2-3)Gal(b1-4)GlcNAc(b1-6)]Man(a1-6)]Man(b1-4)GlcNAc(b1-4)GlcNAc
Method in brief: as §1

B1: PX14375C-bth-509-28-509 (Bacteroides thetaiotaomicron) (protein)
chain: RSPQGQFTEDDNPNALVNGKIYNVYTMMRSFDITAGTPAIAIHYLRSEDSEKGSIPSDGSDVAEMYDDFLYTPTNGLLGSYWGKNYAIIYQCNDILDAIAEKETAGQTETEDIINKGEASFFRAYCYFNLVRAFGEVPLVTYKINDASEANIPKTTADKIYEQIDTDLKTAEESLPETWSTEYTGRLTWGAARSLHARTYMMRSDWDNMYKASTDVINKGLYNLKTPYNEIFTDDGENSGGSIFELQCTATAALPQSDVIGSQFCEVQGVRGAGQWDLGWGWHMATQLMADAYETGDPRKNATLLYFRKTDDEPITPENTNEPYGESPISPAMGAYFNKKAYTDPALRKEYTNKGFWVNIRLIRYSDVVLMAAEAANEKNIPGEAVDYLEMVRARARGTNTNILPKITTNDQGELREAIRHERRVELGLEPDRFYDLVRWGIASEVLHAAGKVNYQDKNALLPLPQSEIDKSKGVLVQNPDY
- glycan array binding signal (z-score) [1]: 0.1
- glycan array binding signal (z-score) [2]: -0.118
- glycan array binding signal (z-score) [3]: -0.221
- glycan array binding signal (z-score) [4]: -0.214
- glycan array binding signal (z-score) (Man(a1-6)Man): -0.187
- glycan array binding signal (z-score) (Man(b1-4)GlcNAc): -0.296
- glycan array binding signal (z-score) (MurNAc(b1-4)GlcNAc): -0.413
- glycan array binding signal (z-score) (Neu5Ac(a2-3)Gal): -0.357
- glycan array binding signal (z-score) [5]: -0.245
- glycan array binding signal (z-score) [6]: -0.11
- glycan array binding signal (z-score) [7]: -0.334
- glycan array binding signal (z-score) [8]: -0.021
- glycan array binding signal (z-score) [9]: -0.304
- glycan array binding signal (z-score) [10]: -0.476
- glycan array binding signal (z-score) [11]: -0.329
- glycan array binding signal (z-score) [12]: -0.466
- glycan array binding signal (z-score) [13]: -0.139
- glycan array binding signal (z-score) [14]: -0.422
- glycan array binding signal (z-score) [15]: -0.27
- glycan array binding signal (z-score) [16]: -0.301
- glycan array binding signal (z-score) [17]: -0.469
- glycan array binding signal (z-score) [18]: 3.9
- glycan array binding signal (z-score) [19]: -0.357
- glycan array binding signal (z-score) [20]: -0.072
- glycan array binding signal (z-score) [21]: -0.124
- glycan array binding signal (z-score) [22]: -0.251
- glycan array binding signal (z-score) [23]: 0.002
- glycan array binding signal (z-score) [24]: -0.13
- glycan array binding signal (z-score) [25]: -0.354
- glycan array binding signal (z-score) [26]: 0.356
- glycan array binding signal (z-score) (Neu5Ac(a2-3)Gal(b1-4)Glc): -0.185
- glycan array binding signal (z-score) [27]: -0.404
- glycan array binding signal (z-score) [28]: -0.247
- glycan array binding signal (z-score) [29]: -0.41
- glycan array binding signal (z-score) [30]: -0.196
- glycan array binding signal (z-score) [31]: -0.381
- glycan array binding signal (z-score) [32]: -0.125
- glycan array binding signal (z-score) [33]: -0.215
